Results from patent US20190367612A1 (Daiichi Sankyo, published 2019).

Experiments:
[1] = target: T1, human GPRC5D (human, UniProt Q9NZD1 1-345); assay: flow cytometry on KMS-34 cells (endogenous human GPRC5D), anti-FLAG antibody and Alexa 488 anti-mouse IgG detection
T1 construct: whole, on cells; also called hGPRC5D; G-protein coupled receptor family C group 5 member D
Description: The KMS-34 cells were recovered by centrifugation, washed twice with a FACS buffer (PBS containing 0.5% BSA and 2 mM EDTA, pH 7.4), and then suspended in the same solution as above. The C2037, C3048, C3015 or C3022 scFv was added to the obtained cell suspension, and the mixture was left standing at 4° C. for 2 hours. After washing twice with a FACS buffer, the cells were suspended by the addition of an anti-FLAG antibody (Sigma-Aldrich Corp.), and the mixture was further left standing at 4° C. for 1 hour. After washing twice with a FACS buffer, the cells were suspended by the addition of Alexa 488-labeled anti-mouse IgG antibody (Jackson ImmunoResearch Laboratories, Inc.), and the mixture was further left standing at 4° C. for 1 hour. After washing twice with a FACS buffer, the cells were fixed in 1% PFA (prepared from a 32% paraformaldehyde solution (Electron Microscopy Sciences)), followed by detection using a flow cytometer (FACSCanto™ II; Becton, Dickinson and Company). The data was analyzed using Flowjo (Tree Star, Inc.).

[2] = target: T2, human GPRC5D amino-terminal peptide MYKDCIESTGDYFLLCDAEGPWGIILE-K(Biotin)-NH2, having an intramolecular … (human, C-terminal lysine carrying biotin, C-terminal amide; intramolecularly formed disulfide bond); assay: ELISA, chemiluminescence: biotinylated amino-terminal peptide of human GPRC5D on NeutrAvidin, scFv detected with HRP anti-FLAG antibody
T2 construct: Peptide Institute synthetic peptide; also called amino-terminal peptide of biotinylated human GPRC5D (disulfide bond present)
T2 peptide: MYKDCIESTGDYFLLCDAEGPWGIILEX
Description: (§1) NeutrAvidin diluted to 1 μg/mL with PBS was added in an amount of 50 μL/well to 96-well Maxi-sorp plate (Black, Nunc/Thermo Fisher Scientific Inc.), and the plate was left standing overnight at 4° C. for immobilization. After washing three times with an ELISA buffer, the amino-terminal peptide of the biotinylated human or cynomolgus monkey GPRC5D (used in Example 10)-1) diluted to 1 μg/mL with PBS was added thereto, and the plate was shaken at room temperature for 1 hour. After washing three times with an ELISA buffer, the plate was blocked with Blocker Casein and washed three times with an ELISA buffer. Then, the C2037, C3048, C3015, or C3022 scFv was added to the plate and reacted at room temperature for 2 hours. After washing three times with an ELISA buffer, a horseradish peroxidase (HRP)-labeled anti-FLAG antibody diluted 5000-fold with an ELISA buffer was added thereto in an amount of 50 μL/well and reacted at room temperature for 1 hour. After washing five times with an ELISA buffer, SuperSignal Pico ELISA Chemiluminescent substrate was added. After 10 minutes, the chemiluminescence was measured using a plate reader.

[3] = target: T3, amino-terminal peptide of cynomolgus monkey GPRC5D …(Biotin)-NH2 (cynomolgus monkey, C-terminal lysine carrying biotin, C-terminal amide); assay: ELISA, chemiluminescence: biotinylated amino-terminal peptide of cynomolgus monkey GPRC5D on NeutrAvidin, scFv detected with HRP anti-FLAG antibody
T3 construct: also called amino-terminal peptide of biotinylated cynomolgus monkey GPRC5D
T3 peptide: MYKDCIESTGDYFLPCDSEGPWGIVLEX
Description: as §1

B1: human antibody C2037 scFv (scFv)
scFv: [about 100 residues not listed]GKSNYPWGQGTLVTVSSGGGGSGGGGSGGGGSQPVLTQPPSASGTPGQRVTISCSGSNSNIGSRTVNWYQHLPGTAPRLLIYGNNQWPSGVPDRFSGSKSGSSASLAISGLRSEDEADYYCAAWDDSLSGVVFGGGTKLTVL
notes: also called C2037 antibody scFv; not shown: FLAG and His tags at the carboxyl terminus
Q: Does B1 bind [1]?
A: Result: binds

Q: And the “EC50 (read off the curve)” value [2]?
A: Its value is ~9 nM.

Q: And the “EC50 (read off the curve)” value [3]?
A: The value was ~5 nM.
